This is one part of the list.
What follows are compounds tested on T1, C. trachomatis L2/434/Bu expressing GFP (CTL2-GFP). Details: total inclusion area; 28.5 h, 10 µM; inhibitor.
T1 construct: L2/434/Bu GFP intracellular growth in HeLa cells
Parameters: species or system HeLa; C. trachomatis total inclusion area by high-content imaging, normalised to DMSO
How it was run: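 After bulk GFP and resorufin fluorescence reads, cells were fixed, stained with Hoechst and imaged by high-content microscopy. Inclusion area and number (GFP) stood in for chlamydial growth, nuclei count (Hoechst) for host cell viability. MICs were derived as for the bulk readout.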

| SMILES | % of control remaining |
| --- | --- |
| Cc1nnc(-c2cc(CC(C)C)n(-c3cccc(C(=O)N4CC=CCC4)c3)n2)o1 [CBK114630] | 93.9379 |
| CC1CN(c2nccn(CCOc3ccc(Br)cc3)c2=O)CCN1 (stereo not shown) [CBK028596T] | 98.5031 |
| COc1ccccc1-c1nnc(NC(=O)COc2ccccc2)o1 [CBK287590] | 104.689 |
| CCC(CN(C(=O)C(N)CCCCN)c1ccc2c(c1)OCO2)c1ccccc1 (stereo not shown) [CBK001083T] | 36.9117 |
| O=C(O)CCCC(=O)Nc1cc(C(=O)O)ccc1Cl [CBK267907] | 92.2981 |
| Cc1cc(C)c(COc2nccnc2OC2CCN(CCCC#N)CC2)c(C)c1 [CBK161575] | 73.6698 |
| Cc1cc2c(cc1NC(=O)[C@@H]1C[C@@H]3C=C[C@H]1C3)n(C)c(=O)n2C [CBK281689] | 85.6229 |
| CS(=O)(=O)N1C2CCC(C2)[C@H]1COc1ccc(F)cc1 (stereo partly shown) [CBK285279] | 100.17 |
| O=C(NCc1ccc2c(c1)OCO2)c1ccccc1CCc1ccccc1 [CBK268591] | 77.6156 |
| Cc1cc(Cc2cnc(NC(=O)c3ccncc3)s2)ccc1Br [CBK298304] | 27.8344 |
| CCN1CCN(S(=O)(=O)c2ccc(Br)cc2)CC1 [CBK100197] | 107.647 |
| COc1ccc(-c2nnc(SCC(=O)O)n2C)cc1 [CBK287232] | 120.365 |
| COc1cc([N+](=O)[O-])ccc1NC(=S)NCc1ccc(S(N)(=O)=O)cc1 [CBK267067] | 119.218 |
| CC(Nc1cc(N2CCN(CCO)CC2)ccc1[N+](=O)[O-])c1ccc(Br)cc1 (stereo not shown) [CBK041273] | 0.171 |
| Cc1cc(C(=O)N(Cc2ccccc2)c2ccccc2)no1 [CBK268131] | 92.0598 |
| CC(C)(C)c1cc(C(=O)NCc2ccccn2)n(Cc2ccc(Cl)cc2Cl)n1 [CBK107288] | 94.3972 |
| Cc1ccccc1-c1noc(C(C)NC(=O)C2(Cn3ccnc3)CC2)n1 (stereo not shown) [CBK306684] | 25.4084 |
| O=C(Nc1cc(Oc2cccnc2)cc([N+](=O)[O-])c1)c1sc2ccccc2c1Cl [CBK300485] | 77.9966 |
| Cc1ccc(S(=O)(=O)Nc2ccc3c(c2)CC(=O)N3)cc1 [CBK287657] | 91.501 |
| CC(C)(C)C1=CC2=NC3(CCS(=O)(=O)CC3)[C@@H]3C[C@@H](O)[C@@H](O)[C@@H]3N2O1 [CBK303247] | 107.95 |
| COc1ccc(C(=O)Nc2nc3ccc(S(N)(=O)=O)cc3s2)cc1 [CBK291147] | 90.1938 |
| Cc1ccc(S(=O)(=O)c2ccccc2)cc1S(=O)(=O)NCc1ccncc1 [CBK270073] | 98.4764 |
| Cc1nnc(CN(CC2CCCO2)C2CCC(C)CC2)n1C (stereo not shown) [CBK305548] | 110.386 |
| O=C(O)c1ccc2c(c1)C(=O)N(c1nc(-c3cccnc3)n[nH]1)C2=O [CBK268284] | 98.1935 |
| N=c1c2c3c(sc2ncn1CCCN1CCOCC1)CCCC3 [CBK268323] | 73.4236 |
| COc1cncc(-c2cc(Nc3ccc(O)cc3C)ncn2)c1 [CBK091061] | 78.9534 |
| O=C(c1cc(-c2ccccc2)n[nH]c1=O)N1CCc2ccccc2C1 [CBK291216] | 105.187 |

| SMILES | % of control remaining |
| --- | --- |
| Cn1ccnc1CN1CCC2(CC1)CC(C(=O)O)N(C(=O)C1CC1)C2 (stereo not shown) [CBK306986] | 92.1553 |
| Cc1noc2nc(-c3ccccc3F)cc(C(=O)N3CCCC3c3nnc4ccccn34)c12 (stereo not shown) [CBK296756] | 92.4756 |
| CCCc1cc(C(=O)N2CCNCC2C(=O)N2CCN(C)CC2)ccn1 (stereo not shown) [CBK307619] | 63.4533 |
| COc1ccc(C(=O)c2c(N)c(C(=O)Nc3ccccc3)c3ccccn23)cc1 [CBK300509] | 79.8159 |
| O=C(/C=C/c1ccc(Cl)cc1Cl)NCCNc1c(Cl)cccc1[N+](=O)[O-] [CBK264295] | 74.9332 |
| COc1ccc(C(=O)NNC(=O)/C=C/c2ccc(C(C)C)cc2)cc1 [CBK261697] | 33.0282 |
| Cc1cc(NC(=O)c2ccc(S(=O)(=O)N(C)C)cc2)nc2c1c(=O)oc1ccccc12 [CBK291135] | 117.356 |
| CCc1cc(C(=O)N2CCCC(c3cc4ccccc4cn3)C2)on1 (stereo not shown) [CBK285156] | 108.399 |
| N#Cc1ccc(NC(=O)c2ccc(-n3cnnc3)cc2Cl)cc1 [CBK269758] | 87.274 |
| Cc1cc(S)n2nc(C)c(-c3ccccc3)c2n1 [CBK288423] | 106.125 |
| NS(=O)(=O)c1ccc(Nc2c(C(=O)O)cc([N+](=O)[O-])cc2[N+](=O)[O-])cc1 [CBK261319] | 94.3825 |
| O=S(=O)(Nc1cccc(-c2cnco2)c1)c1ccc(Cl)c(Cl)c1 [CBK067117] | 91.8111 |
| Cn1c(SCC(=O)N2CCN(c3ccccc3)CC2)nnc1-c1cccc([N+](=O)[O-])c1 [CBK265209] | 126.219 |
| CN(CC(=O)N1CCN(Cc2ccc3c(c2)OCO3)CC1)S(=O)(=O)c1ccc2ccccc2c1 [CBK267016] | 78.3466 |
| COC(=O)c1c(NC(=S)Nc2ccc(CC(=O)O)cc2)sc(C)c1C [CBK267111] | 127.985 |
| CCCC(=O)NCCn1nc(-c2ccccc2F)cc1CN(C)C [CBK282000] | 95.4152 |
| COc1cccc(Nc2nnc(-c3cc4cc(OC)ccc4oc3=O)s2)c1 [CBK264432] | 93.2145 |
| CCO/C(C)=C/c1sc2ccc3ccccc3c2[n+]1CCCS(=O)(=O)[O-] [CBK260948] | 84.6991 |
| Nc1nc(-c2ccccc2I)n[nH]1 [CBK027413] | 93.4859 |
| c1ccc(CCCN2CCN(Cc3ccccn3)CC2)cc1 [CBK263461G] | 103.32 |
| O=C(NCCSCc1ccco1)Nc1cccc(Cl)c1 [CBK268277] | 87.7399 |
| Cc1cc(/C=N\NC(=O)c2cc3ccccc3cc2O)c(C)n1-c1ccccc1 [CBK261801] | 96.5182 |
| CCOC(=O)CCNC(=O)/C=C/c1ccc(C(C)C)cc1 [CBK149643] | 100.993 |
| COc1ccc(C(=O)CN2CCC3(CC2)CC(=O)c2cc(Br)ccc2O3)cc1 [CBK162265] | 60.355 |
| O=C(NCc1ccc(OC2CCNCC2)cc1)c1cccs1 [CBK036353T] | 107.268 |
| CN(/N=C/c1cc(Br)cs1)c1ccc(Cl)nn1 [CBK028729] | 54.9504 |
| Cn1cc(CN2CCCN(C(=O)c3ccc4ccccc4n3)CC2)cn1 [CBK305369] | 75.9954 |

| SMILES | % of control remaining |
| --- | --- |
| Cc1cnc2[nH]c(C(F)(F)F)c(CN3CCN(C)CC3)c2c1 [CBK284765] | 104.367 |
| COc1cccc(C(NC(=O)c2cc(CN3CCOCC3)c(C)o2)c2ccccc2)c1 (stereo not shown) [CBK286279] | 105.449 |
| Cc1ccc(S(=O)(=O)N(C)CCCC(=O)n2cnc3ccccc32)cc1 [CBK264457] | 105.437 |
| Cc1cc(CNC(=O)C2=CC(=O)CC(C)(C)O2)no1 [CBK153281] | 63.24 |
| CCN(CC(=O)NCc1cccs1)C(=O)CN1CCCC1c1ccc(C)cc1 (stereo not shown) [CBK297761] | 84.35 |
| CCCc1n[nH]c(C2CCCC2)c1C(=O)OCC [CBK115727] | 70.7407 |
| CCCC(=O)Nc1ccc(OCc2ncc(C(C)(C)C)o2)c(C(C)=O)c1 [CBK305218] | 101.71 |
| O=C(NCc1ccc(-c2csnn2)cc1)c1ccc(Oc2ccccc2)cc1 [CBK149300] | 91.1245 |
| Nc1nonc1-n1nnc(C(=O)N/N=C2\CCc3ccccc32)c1-c1ccccc1 [CBK261988] | 101.405 |
| Cc1cc(/C=N/O)c(C)c(COCc2cc(C)cc(/C=N/O)c2C)c1 [CBK261770] | 94.3122 |
| Cc1nc2ccccc2c(SCCC(=O)O)c1Cc1ccccc1 [CBK144942T] | 92.241 |
| COc1cc2c(cc1OC)CN(C(=O)N(CCN)CCC(C)c1ccccc1)CC2 (stereo not shown) [CBK000612C] | 17.7758 |
| COc1ccc(S(=O)(=O)Nc2nccnc2-c2ccc3[nH]ccc3c2)cc1 [CBK050805] | 96.4736 |
| CCCOc1ncccc1O [CBK001459] | 102.702 |
| Cc1nn(CC(=O)N(C)Cc2cnn(C)c2)c(=O)c2ccccc12 [CBK305701] | 62.5373 |
| CCCn1cnc2cc(NC(=O)Cn3cccc(C(=O)NC4CCCCC4)c3=O)ccc21 [CBK286075] | 94.589 |
| Cc1c(C(=O)N2CCC(N3CCSCC3)CC2)[nH]c2c(F)cccc12 [CBK307065] | 63.0591 |
| COc1ccc(Br)cc1S(=O)(=O)n1ccnc1C [CBK264003] | 91.1456 |
| Cc1cccnc1NC(=O)COc1ccc(Cl)cc1 [CBK262175] | 70.3994 |
| CN1CCN(C(=O)c2[nH]c3ccccc3c2NS(=O)(=O)Cc2ccccc2)CC1 [CBK050046] | 86.6267 |
| Cc1cccc(C)c1OCC(=O)Nc1cccc(Oc2ccc3c(c2)C(=O)N(c2ccccc2)C3=O)c1 [CBK265499] | 97.2644 |
| CCOc1ccc(NC(=O)C2C3C=CC(O3)C2C(=O)O)cc1 (stereo not shown) [CBK261592] | 95.5728 |
| O=C(Nc1ccccc1N1CCN(C(=O)c2ccc(Cl)cc2)CC1)c1ccc(-c2cccc([N+](=O)[O-])c2)o1 [CBK266398] | 113.228 |
| Cc1ccc(CNC(=O)OCCN2CCN(C)CC2)o1 [CBK200205] | 104.517 |
| N#Cc1cccc(C(=O)N2CCCC3(CCN(C(=O)Cc4c[nH]c5ccccc45)C3)C2)c1 (stereo not shown) [CBK131581] | 93.5065 |

Reference: article PMC12040169 (PLOS Biology, 2025)
